Data as given in the supplement of paper PMC11417369.
± gives the standard deviation of the averaged measurements. Some of the results follow.

System: PfAP2-LT AP2 domain (GST-tagged)
Experiment: gcPBM binding intensity (ln(normalized median fluorescence intensity)); higher = stronger DNA binding
Method in brief: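 For binding intensity, the highest Masliner-normalised natural-log median intensity across replicate spots of either probe orientation was taken. Protein bound to the array was stained with Alexa488 anti-GST antibody and scanned at 488 nm. The protein, GST-tagged P. falciparum DNA-binding domains from E. coli at about 25 μg on average, had been applied for 1 h to an Agilent 4 × 180k array of primer-extended double-stranded 36-bp intergenic genomic probes and negative controls.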

Sequence	gcPBM binding intensity (ln)
TAGTAGTTATCATTAACATGCAATAATATTATTTAA [TGCATGCA_site178]	8.53 ± 0.47
ATGAACATATTTTTTTGTACTTATGAAAATATGTTA [XGTACX_site5996]	8.49 ± 0.29
AAGTTAGGATAGATCCAATAATTTTTAGTTTCTCTT [GTGCAC_negctrl_site272]	8.45 ± 0.49
AAAAAAAAAAAAAAAAGTACTCTATAAGTAACATTT [XGTACX_site6973]	8.47 ± 0.3
ATTTTTTTGTTATTGTTGAAAAGATGGTTCTTTTTT [CACACA_negctrl_site1346]	8.59 ± 0.39
AATTTCTTATTTTGTACACACAATAAATATTCACAT [CACACA_site1612]	9.22 ± 0.39
GTTATAAAATATGGCACACAAAATGTAAGTAAATGA [CACACA_site1458]	9.1 ± 0.54
GATCTTTAAATTTATTGTACATAAATGTATATGTTA [XGTACX_site1107]	8.71 ± 0.49
ATATATTTTGTTATGGTGCGTAAGAAATATATTCTT [GTGCAC_site9825]	8.73 ± 0.43
TATCACATATTATGATGTACAAGGATTCTGACTAAT [XGTACX_site1196]	8.64 ± 0.47
TTTATTTATCTGAACACATGCAGACAAATAACATAT [TGCATGCA_site929]	8.61 ± 0.4
ATTATATATAAACACACACACATGCATGCACATATA [CACACA_site4237]	9.76 ± 0.13
CATAAACTTTATAACACACACTTATAAATATAAATA [CACACA_site6646]	9.04 ± 0.35
ATATCTATAATAAACACACACATATACCTATAGGTA [CACACA_site7596]	9.26 ± 0.23
TATTATATGTATTGCACACCTTCAACAACTACTTCT [CACACA_site655]	9.11 ± 0.51
GGGCATATAATATAAAGTACAGGACTATAAAAATAT [XGTACX_site4481]	8.86 ± 0.59
ATTGTGCACTTATATGCACACATTTTAGTTTTTTTT [CACACA_site2028]	8.97 ± 0.38
TATATATTATAAAATAGTACACAGAATTTAAATATA [XGTACX_site100]	8.64 ± 0.41
TATATATAGAAACACACACACATATATATATATTTT [CACACA_site2540]	9.71 ± 0.12

Sequence	gcPBM binding intensity (ln)
TTGTTGATTGTTATTTATCATTAGATGTAAAATATG [CACACA_negctrl_site927]	8.6 ± 0.29
AATATTTTTTTATAAACACACATATAAATAAATATA [CACACA_site7622]	8.46 ± 0.35
TCTTTTAAACAGTACACACACACATATATATATATA [CACACA_site924]	9.89 ± 0.11
TTATGAAATAGAATAACACACATATTTATATATGTG [CACACA_site2050]	8.93 ± 0.39
CATAGAATAATTTATTGTACGTGCATGCTATTTTTT [XGTACX_site8984]	9.15 ± 0.38
AAACAGAATACATATACACACATACAAAAAAGTGCA [CACACA_site8235]	9.31 ± 0.37
ATTAAATATATGATGTGTACATATTCGTGTATGTTT [XGTACX_site2141]	9.04 ± 0.4
TATACATTTTTATAAAGTACACAAAAATAAATATAA [XGTACX_site1647]	8.53 ± 0.41
AATGCTATCTTCTTATTTTTCATACACAACATGAAC [CACACA_negctrl_site1809]	8.99 ± 0.4
TATAATATTTATATAACACACATATATATTTATTTA [CACACA_site280]	8.64 ± 0.44
AAAATAAATTTTTATGTTATATATACAATTTCTCTA [CACACA_negctrl_site1760]	8.43 ± 0.45
TATTTTTTTAAAAATACACACATAAAATCATGAAAA [CACACA_site1085]	8.55 ± 0.47
TTTTTTTATATTTTTAGTACACATTGGTATATATAT [XGTACX_site4114]	8.86 ± 0.41
ATATATATATGTCAAAGTACTAAAAATATATACATA [XGTACX_site3397]	8.77 ± 0.44
TTATGTTGTAAATACACACATACATATACATACACA [CACACA_site733]	9.07 ± 0.3
AATAAAATATAATAATTAATATATATATATATATAA [GTGCAC_negctrl_site457]	8.65 ± 0.45
TATGTGAAATAAGGATGTACAATTTTGATTTCCCCA [XGTACX_site8389]	8.77 ± 0.39
GTGTACAAAATATGGTAATAAAGTAGTTACATGAAT [CACACA_negctrl_site1775]	9.08 ± 0.47
CTAAATTGTTAATAGAGTACATTTGTATAATATAAG [XGTACX_site594]	8.54 ± 0.49

Sequence	gcPBM binding intensity (ln)
TTTTAATAATTTATAAAAAAAAAAAAAAAATAAATA [TGCATGCA_negctrl_site419]	8.12 ± 0.5
TTTAATGAAAGAAACACATACGTATCAAAATATATG [TGCATGCA_negctrl_site510]	8.66 ± 0.47
TACGTTGTATATTTTTGTACATATTGAATTACAAAA [XGTACX_site5906]	8.52 ± 0.35
TTCATATGGAATAAAAGTACGTATTAAAACAATTTT [XGTACX_site8742]	8.63 ± 0.36
GAACAATATATTTGCACACAAAAAATATATATTTAT [CACACA_site3317]	9.24 ± 0.44
GTTTACATCATTCTGGTGCAAAAAAAAAAAAAAATA	8.47 ± 0.57
GGATAAAAAATATGTACACACATATAGATATCTATA [CACACA_site2693]	9.04 ± 0.38
ATACAAGTATTAATTACACACTCAAAAAGAAAAAAC [CACACA_site5287]	8.95 ± 0.48
TAGATTTAAAAAAAAAAAAAATTTTTTTTTTTTTTT [TGCATGCA_negctrl_site593]	8.06 ± 0.23
GAATACTCATTTCTTTGTACATATATATGTGTATTT [XGTACX_site6411]	9.11 ± 0.48
AAAGCAAATAATAAGTGTACGGGTCAATATATGCGT [XGTACX_site1519]	9.22 ± 0.47
CATATAAACAATAACACACACCTAGGTACATGGAAA [CACACA_site4615]	9.47 ± 0.28
CTTTTTAATTTATCGACACACGCATGAATAGAAATT [CACACA_site9112]	8.7 ± 0.4
AAAAAAAAAAAAGAACGTACAAATTAATTTATAGAA [XGTACX_site5584]	8.73 ± 0.57
AATATTAAAATAAAAAGTACTTATTTATGTATGTTG [XGTACX_site2682]	8.6 ± 0.46
TGTATAATATTTGGTGCACACAAATTAACAACTGTT [CACACA_site9245]	9.23 ± 0.41
TTTATATAACAACAAAATGGAAATATATATGTATGT [TGCATGCA_negctrl_site98]	8.68 ± 0.35
TACACAAATATATACATACACACATATATACGCATA [CACACA_site394]	9.27 ± 0.3
